Source: the supplement of paper PMC5919970
Structures can show the parent of a compound that is named as a salt. The full ranking holds about 2,000 compounds; the median of “fractional viability relative to vehicle” is about 0.91, and the lowest 2% start at about 0.045. The list shows a part of the results.

Tested on: TYKNU
Experiment: fractional viability relative to vehicle; TYKNU is a high-grade serous ovarian cancer line; higher = less growth inhibition
Conditions: 72 h
Method in brief: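 Drug treatment lasted 72 h, with cells grown at 37 °C in 5% CO2 in RPMI 1640 supplemented with 10% FBS. Beforehand, TYKNU control cells or their lentiCRISPRv2 knockout derivatives had been seeded at 500 cells per well into drug-stamped 384-well plates carrying a ~2100-compound library at 2 or 10 μM, in duplicate. Viability came from Cell Titer Glo luminescence, with averaged duplicate treatment wells normalised to duplicate control wells in the same plate position.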

[1] = 2uM, genotype: DNM1L knockout (sgDNM1L #1)
[2] = 2uM, genotype: sgCTRLA1 (non-targeting control)
[3] = 10uM, genotype: DNM1L knockout (sgDNM1L #1)
[4] = 10uM, genotype: sgCTRLA1 (non-targeting control)

| SMILES | fractional viability [1] | fractional viability [2] | fractional viability [3] | fractional viability [4] |
| --- | --- | --- | --- | --- |
| Cc1nc(C(=O)NCC(=O)O)c(O)c2ccc(Oc3ccccc3)cc12 | 0.864 | 0.978 | 0.868 | 0.86 |
| CCCCCCNC(=O)n1cc(F)c(=O)[nH]c1=O [Carmofur] | 1.26 | 0.993 | 0.738 | 0.668 |
| CC(O)c1cc(C(=O)N[C@@H](C)Cn2ccc(-c3ccc(C#N)c(Cl)c3)n2)n[nH]1 (some centres undefined) | 0.762 | 0.897 | 0.94 | 0.769 |
| Nc1nc(=O)n([C@@H]2CS[C@H](CO)O2)cc1F [Emtricitabine] | 0.891 | 1.04 | 0.911 | 1.01 |
| COc1ccc(Cl)cc1C(=O)NCCc1ccc(S(=O)(=O)NC(=O)NC2CCCCC2)cc1 [Glyburide] | 0.858 | 1.02 | 0.843 | 0.976 |
| CCc1cccc(CC)c1NC(=O)N1Cc2[nH]nc(NC(=O)c3ccc(N4CCN(C)CC4)cc3)c2C1 | 0.538 | 0.711 | 0.359 | 0.462 |
| CC[C@@H]1C(=O)N(C)c2cnc(Nc3ccc(C(=O)N[C@H]4CC[C@H](N5CCN(CC6CC6)CC5)CC4)cc3OC)nc2N1C(C)C [Volasertib (BI 6727)] | 1.01 | 1.12 | 0.895 | 1.07 |
| COC(=O)N[C@@H](C)CNc1nccc(-c2cn(C(C)C)nc2-c2cc(Cl)cc(NS(C)(=O)=O)c2F)n1 | 0.402 | 0.475 | 0.213 | 0.341 |
| CC#C[C@]1(O)CC[C@H]2[C@@H]3CCC4=CC(=O)CCC4=C3[C@@H](c3ccc(N(C)C)cc3)C[C@@]21C [Mifepristone] | 0.896 | 1.16 | 0.66 | 1.02 |
| CN1CCN(C(=O)c2cc3cc(Cl)ccc3[nH]2)CC1 | 1.13 | 1.23 | 0.961 | 1.16 |
| CC(=O)OCC(=O)[C@@]1(O)CC[C@H]2[C@@H]3CCC4=CC(=O)C=C[C@]4(C)[C@H]3[C@@H](O)C[C@@]21C [Prednisolone Acetate] | 1.3 | 1.12 | 1.15 | 1.09 |
| COc1ccc(CNc2nc(N3CCC[C@H]3CO)ncc2C(=O)NCc2ncccn2)cc1Cl [Avanafil] | 0.972 | 1.12 | 0.788 | 0.943 |
| COC(=O)N[C@H](C(=O)N1CC2(CC2)C[C@H]1c1nc(-c2ccc3c(c2)C(F)(F)c2cc(-c4ccc5[nH]c([C@@H]6[C@H]7CC[C@H](C7)N6C(=O)[C@@H](NC(=O)OC)C(C)C)nc5c4)ccc2-3)c[nH]1)C(C)C [Ledipasvir (GS5885)] | 0.605 | 0.873 | 0.485 | 0.534 |
| CC[C@H](c1ccc(O)cc1)[C@@H](CC)c1ccc(O)cc1 [Hexestrol] | 0.952 | 1.12 | 0.811 | 0.966 |
| Cc1c(Nc2ncccc2C(=O)O)cccc1C(F)(F)F [Flunixin Meglumin] | 1.02 | 1.06 | 0.844 | 1.09 |
| CC(ONC(=O)c1cc(C(F)(F)F)cc(C(F)(F)F)c1)C(=O)Nc1ccc(Cl)cc1 (centres undefined) | 0.763 | 1 | 0.808 | 0.687 |
| OC[C@@H](O)CN1CCN(c2ccccc2)CC1 [Levodropropizine] | 0.967 | 1.05 | 0.814 | 1.04 |
| N#CC1(c2ccc(NC(=O)c3cccnc3NCc3ccncc3)cc2)CCCC1 [Apatinib] | 0.974 | 1.17 | 0.801 | 0.98 |
| NCCc1ccc(O)c(O)c1 [Dopamine HCl] | 0.312 | 0.46 | 0.153 | 0.181 |

| SMILES | fractional viability [1] | fractional viability [2] | fractional viability [3] | fractional viability [4] |
| --- | --- | --- | --- | --- |
| Cn1cnc2c(F)c(Nc3ccc(Br)cc3Cl)c(C(=O)NOCCO)cc21 [Selumetinib (AZD6244)] | 0.519 | 0.519 | 0.359 | 0.278 |
| Nc1nc(N)c2nc(-c3cccc(O)c3)c(-c3cccc(O)c3)nc2n1 | 1.12 | 1.21 | 0.829 | 1.05 |
| CN(Cc1cc(Br)cc(Br)c1N)C1CCCCC1 [Bromhexine HCl] | 0.973 | 0.983 | 0.877 | 1.06 |
| C[C@H](CS)C(=O)N1CCC[C@H]1C(=O)O [Captopril] | 1.02 | 1.18 | 0.968 | 1.08 |
| Cn1c(N2CCCCS2(=O)=O)nc(C(=O)NCc2ccc(F)cc2)c(O)c1=O | 0.975 | 1.2 | 0.9 | 1.14 |
| O=C(c1ccccc1)c1ccc2nc(NC(=O)c3csc(C4CCN(c5ncnc6ccsc56)CC4)n3)[nH]c2c1 | 0.749 | 1.15 | 0.481 | 0.328 |
| C[N+](C)(C)CC(O)CC(=O)[O-] (racemic) [DL-Carnitine HCl] | 0.978 | 1.07 | 0.892 | 1.11 |
| CCS(=O)(=O)N1CCN(c2ccc(Nc3ncc(C(N)=O)c(NC4CC4)n3)cc2)CC1 | 1.08 | 0.892 | 0.331 | 0.263 |
| C[N+](C)(C)C[C@H](O)CC(=O)[O-] [L-carnitine] | 1.12 | 1.14 | 0.8 | 1.07 |
| Cc1ccc(C(=O)Cn2c3c(sc2=N)CCCC3)cc1 [Pifithrin-_ (PFT_)] | 0.969 | 1.1 | 0.714 | 1.11 |
| CC(C)(C)NC(=O)[C@H]1CC[C@H]2[C@@H]3CC[C@H]4NC(=O)C=C[C@]4(C)[C@H]3CC[C@]12C [Finasteride] | 1.01 | 1.12 | 0.851 | 1.06 |
| C=CC[N+]1([C@H]2C[C@H]3[C@@H]4CC[C@H]5C[C@H](O)[C@@H](N6CCOCC6)C[C@]5(C)[C@H]4CC[C@]3(C)[C@H]2OC(C)=O)CCCC1 [Rocuronium Bromide] | 0.905 | 1.05 | 0.906 | 0.882 |
| C=C1CC[C@H](O)C/C1=C/C=C1\CCC[C@]2(C)[C@@H]([C@H](C)/C=C/[C@H](C)C(C)C)CC[C@@H]12 [Vitamin D2] | 1.19 | 1.02 | 0.175 | 0.739 |
| Nc1nc(N)c2nc(-c3ccccc3)c(N)nc2n1 [Triamterene] | 0.971 | 0.889 | 0.816 | 1.01 |
| C=C1C(=O)O[C@H]2[C@H]1CC/C(C)=C/CC[C@@]1(C)O[C@@H]21 [(-)-Parthenolide] | 0.336 | 0.595 | 0.0299 | 0.0264 |
| COc1ccc(CCC(=O)Nc2nc3ccc(Cl)cc3s2)cc1OC | 0.985 | 1.16 | 0.657 | 0.999 |
| CCCCOc1ccc(C(=O)CCN2CCCCC2)cc1 [Dyclonine HCl] | 0.901 | 1.06 | 0.908 | 0.917 |
| CC(C)(C)CC(C)(C)c1ccc(OCCOCC[N+](C)(C)Cc2ccccc2)cc1 [Benzethonium Chloride] | 0.655 | 0.806 | 0.0602 | 0.0999 |
| O=[N+]([O-])c1cn2c(n1)OC[C@@H](OCc1ccc(OC(F)(F)F)cc1)C2 | 1.21 | 1.09 | 1.25 | 1.12 |

| SMILES | fractional viability [1] | fractional viability [2] | fractional viability [3] | fractional viability [4] |
| --- | --- | --- | --- | --- |
| Cn1nnc2c(C(N)=O)ncn2c1=O [Temozolomide] | 1.08 | 0.965 | 0.764 | 0.836 |
| O=c1cc[nH]c(=O)[nH]1 [Uracil] | 0.771 | 1.16 | 0.881 | 1.03 |
| COc1ccc(-c2cc(=O)c3c(OC)c(OC)c(OC)c(OC)c3o2)cc1OC [Nobiletin] | 1.1 | 1.2 | 1.11 | 1.11 |
| CCOC(=O)N1c2ccc(C(F)(F)F)cc2[C@@H](N(Cc2cc(C(F)(F)F)cc(C(F)(F)F)c2)C(=O)OC)C[C@H]1CC [Torcetrapib] | 0.889 | 1.07 | 0.695 | 0.991 |
| Cc1ccc(C(=O)Nc2cccc(C(F)(F)F)c2)cc1Nc1nc(-c2cccnc2)nc2c1cnn2C | 0.712 | 0.928 | 0.164 | 0.207 |
| CO[C@H]1C[C@@H]2CC[C@@H](C)[C@@](O)(O2)C(=O)C(=O)N2CCCC[C@H]2C(=O)O[C@H]([C@H](C)C[C@@H]2CC[C@@H](OC(=O)C(C)(CO)CO)[C@H](OC)C2)CC(=O)[C@H](C)/C=C(\C)[C@@H](O)[C@@H](OC)C(=O)[C@H](C)C[C@H](C)/C=C/C=C/C=C/1C | 0.493 | 0.339 | 0.277 | 0.207 |
| CCC[C@@H]1C[C@@H](C(=O)N[C@@H]([C@H]2O[C@H](SC)[C@H](O)[C@@H](O)[C@H]2O)[C@@H](C)O)N(C)C1 [Lincomycin HCl] | 1.24 | 1.04 | 1.13 | 1.01 |
| N#Cc1c(Oc2ccc(F)c(NC(=O)Cc3cccc(C(F)(F)F)c3)c2)ccc2nc(NC(=O)C3CC3)sc12 | 0.201 | 0.232 | 0.15 | 0.154 |
| Cc1ccc(CNc2ncnc3ccc(-c4ccc(CO)o4)cc23)o1 | 1.19 | 1.06 | 0.871 | 0.761 |
| CN1C(C(=O)Nc2ccccn2)=C(O)c2sc(Cl)cc2S1(=O)=O [Lornoxicam] | 1.04 | 1.22 | 0.894 | 0.996 |
| CC12CC3CC(C)(C1)CC(N)(C3)C2 [Memantine HCl] | 1.05 | 1.03 | 0.94 | 0.86 |
| O=C(O)c1ccc(C=C2SC(=S)N(c3cccc(C(F)(F)F)c3)C2=O)cc1 | 0.838 | 1.13 | 0.727 | 0.961 |
| COc1ccc(-c2cc(=O)c3c(OC)c(OC)c(OC)c(OC)c3o2)cc1 [Tangeretin] | 1.09 | 1.29 | 0.961 | 1.24 |
| Cc1cccc(-c2nn3c(c2-c2ccnc4ccc(C(N)=O)cc24)CCC3)n1 | 1.06 | 1.18 | 0.899 | 1.15 |
| CC(C)c1nc(CN(C)C(=O)N[C@@H](CCN2CCOCC2)C(=O)N[C@H](CC[C@H](Cc2ccccc2)NC(=O)OCc2cncs2)Cc2ccccc2)cs1 [Cobicistat (GS-9350)] | 0.929 | 1.12 | 0.591 | 0.934 |
| Cc1cc(C)nc(NS(=O)(=O)c2ccc(NC(=S)NC(=O)COc3ccc(Br)cc3Cl)cc2)n1 | 1.05 | 1.04 | 0.706 | 1.08 |
| O=C(Nc1cccnc1)N1CCC(Cc2cccc(Oc3ccc(C(F)(F)F)cn3)c2)CC1 | 0.943 | 1.1 | 0.557 | 0.527 |
| CCCCc1oc2ccccc2c1C(=O)c1cc(I)c(OCCN(CC)CC)c(I)c1 [Amiodarone HCl] | 0.996 | 1.07 | 0.736 | 0.965 |
